Hit rate of the full screen: of about 43,000 compounds, about 200 (0.47%) were called active. About 12% were inconclusive and are not listed. The call rests on the fitted dose curve; in most records, active means well fitted cell-killing curve with a large enough effect; inconclusive means small, poorly fitted or top-dose-only effect, or effect the other way; inactive means flat fitted curve, though single readings scatter. Some of the results follow.
assay: Cell viability qHTS assay in S16 Pmp22-F2sN cells; settings: S16 Pmp22-F2sN Schwann cells (luciferase reporters placed in the Pmp22 gene) viability, CellTiter-Glo, 24 h; series mostly up to 57.5 µM; activity change, negative = cytotoxicity: at the top concentration; further: nearly all actives have a fitted effect of over 65% in size
Method in brief: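 Luminescence from CellTiter-Glo, read by CCD camera after a 15 min room-temperature incubation, served as the viability signal. Reporter Schwann cells (S16 Pmp22-F2sN) had been treated with pin-transferred compounds for 24 h at 37C.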
On the % scale 0 is the no-effect control and ±100 the full control effect; potency means the concentration at half of the fitted maximal effect.

SMILES	activity change, negative = cytotoxicity	Potency
Cc1ccc(CSc2oc(-c3ccco3)nc2S(=O)(=O)c2ccc(Br)cc2)cc1	inactive: -7.43%	
CC1CCN(C(=O)CSc2nc3c([nH]c4ccccc43)c(=O)n2-c2ccccc2)CC1	inactive: 9.15%	
Cc1ccc(CNC(=O)CCn2ccc3cc(S(=O)(=O)N4CCCC4)ccc32)cc1	inactive: -0.483%	
Cc1ccc(CNc2nc3c(S(=O)(=O)c4ccc(C)c(C)c4)nnn3c3ccc(Cl)cc23)cc1	inactive: -7.46%	
COc1ccccc1NC(=O)CSc1nnc(-c2nonc2NC(C)=O)n1-c1ccccc1	inactive: -1.51%	
CCc1ccc(NC(=O)Cn2c(=O)n(Cc3nc(C)no3)c(=O)c3cc4c(cc32)OCO4)cc1	inactive: 2.83%	
CCOc1ccc(-n2c(=O)c3c4c(sc3n(Cc3cc(=O)n5cc(Cl)ccc5n3)c2=O)CCC4)cc1	inactive: 11.8%	
CCOCCCNC(=O)c1cc2c(=O)n3ccccc3nc2s1	inactive: 4%	
O=C(/C=C\c1ccc2c(c1)OCO2)NC1CC(=O)N(c2ccc(F)cc2)C1 (stereo not given)	inactive: 11.6%	
COc1ccc(N2CCN(C(=O)c3ccc(NC(=O)c4nsc5ccccc45)cc3)CC2)cc1	inactive: -21.5%	
CC1CCN(S(=O)(=O)c2cc(C(=O)NCCc3ccccc3)n(C)c2)CC1	inactive: -0.328%	
Cc1ccc(C)c(N2CCN(C(=O)c3cc4cc5ccc(C)cc5nc4s3)CC2)c1	inactive: 14.9%	
CC(C)(C)c1ccc(C(=O)Nc2cc(-c3ccccc3)nn2-c2ccccc2)cc1	inactive: 25.7%	
CCCN(CCC)CCNC(=O)Cn1ncc2c([nH]c3ccc(C)cc32)c1=O	inactive: 15.1%	
COc1ccccc1Nc1nn2c(=O)c3ccc(C(=O)Nc4ccc(F)cc4)cc3nc2s1	inactive: 20.9%	
NC(=O)c1cc(S(=O)(=O)NCc2ccc(Br)cc2)cs1	inactive: 10.1%	
CCOC(=O)c1ccc(NC(=O)CCc2c(C)n(CC)c3cc(-c4ccccc4OC)nn3c2=O)cc1	inactive: 0.927%	
CCc1cccc(-n2c(=O)c3cccnc3n2CC(=O)NCc2ccccc2Cl)c1	inactive: -2.62%	
CCOC(=O)c1[nH]c(C)c(CCC(=O)NCc2ccc(C)cc2)c1C	inactive: 1.31%	
Cc1ccc2c(CC(=O)Nc3c(C(=O)c4ccc(F)cc4)oc4ccccc34)coc2c1	inactive: -2.89%	
CCN(c1ccccc1)S(=O)(=O)c1ccc(NC(=O)c2cc(=O)c3ccc(C)c(C)c3o2)cc1	inactive: -5.57%	
COc1ccc(CCNC(=O)CS(=O)Cc2nc(-c3ccc(C)cc3)oc2C)cc1OC (stereo not given)	inactive: 1.64%	
O=C(CCSCc1ccc(Cl)cc1)N1CCN(c2ccccc2F)CC1	inactive: 9.21%	
CCC(=O)OCc1cnc(C)c2oc(=O)c(C(=O)Nc3ccc(CC)cc3)cc12	inactive: 2.97%	

SMILES	activity change, negative = cytotoxicity	Potency
CC(NC(=O)C1CCN(C(=O)N2CCOc3ccc(Cl)cc32)CC1)c1ccccc1 (stereo not given)	inactive: 0.256%	
COc1ccc(-c2nc3c(c(SCc4cc(C)ccc4C)n2)Cc2c(CO)cnc(C)c2O3)cc1	inactive: 0.0279%	
COc1ccc(N2CCN(C(=O)c3nn(C)c4c3CS(=O)(=O)c3ccccc3-4)CC2)cc1	inactive: -3.31%	
COc1ccc(CNCc2ccc3c(c2)n(C)c(=O)n3C)cc1	inactive: 4.34%	
COc1cccc(C(=O)NC(=O)Nc2ccc(-n3nc(C(F)(F)F)cc3C(F)(F)F)cc2)c1	inactive: 4.27%	
CC(=O)c1ccc(NC(=O)C2=CC(c3cccs3)=NS(=O)(=O)N2C)cc1	inactive: -2.31%	
Cc1cc(C)n(-c2nnc(Nc3ccc(C(C)C)cc3)c3ccccc23)n1	inactive: 0.243%	
Cc1nc2c(c(C)nn2-c2ccccc2)c(C)c1CCC(=O)Nc1ccc(F)cc1	inactive: -23.6%	
COc1cc(Nc2nc(SCc3cccc(Cl)c3)nc3ccccc23)cc(OC)c1	inactive: -21.6%	
COc1ccc(NC(=O)C2CCCN(S(=O)(=O)c3ccc(Cl)cc3)C2)cc1 (stereo not given)	inactive: 8.96%	
Cc1ccc(C)c(N2CCN(c3nccn4nc(-c5ccc(Br)cc5)cc34)CC2)c1	inactive: 14.8%	
Cc1ccc(Cl)cc1NC(=O)C(NS(=O)(=O)c1cccc2nsnc12)c1ccccc1 (stereo not given)	inactive: 2.39%	
O=C(NCc1ccccc1F)C1CCN(Cc2cc3ccccc3n2Cc2cccc(Cl)c2)CC1	inactive: -25.6%	
Cn1c(=O)oc2cc(S(=O)(=O)CCC(=O)NCCc3ccccc3)ccc21	inactive: 7.91%	
CC(=O)c1cc(-c2ccc(F)cc2)n(CC(=O)NC(C)c2ccccc2)c1C (stereo not given)	inactive: 0.0696%	
Cc1cccn2c(=O)c(/C=C(\C#N)c3nc4ccccc4s3)c(Oc3ccc(Br)cc3)nc12	inactive: 4.77%	
O=C(COCc1cc(-c2cccs2)on1)NCc1ccccc1Cl	inactive: -1.11%	
Cc1nc2nc(NC(=O)c3ccc(F)cc3)[nH]n2c(=O)c1Cc1ccccc1	inactive: 3.42%	
Cc1ccc(Cc2c(C)nn(-c3nc(C)c(C(=O)N4CCCCC4C)s3)c2C)cc1 (stereo not given)	inactive: 9.48%	
COc1ccc(NC(=O)C2CCCN(S(=O)(=O)c3c(C)n[nH]c3C)C2)cc1OC (stereo not given)	inactive: -0.804%	
COc1ccc(-c2cc(OC(=O)c3ccc(F)cc3)c3c(C)oc(C)c3c(=O)c2)cc1OC	inactive: -18.1%	
CCC(=O)N1CCc2cc(S(=O)(=O)NC(C(=O)NCCc3ccc(Cl)cc3)C(C)C)ccc21 (stereo not given)	inactive: 3.36%	
Cc1cccc(NC(=O)CN2c3ccccc3S(=O)(=O)c3ccccc32)c1C	inactive: -6.46%	
Cc1ccc(CNC(=O)Cn2c(=O)n(-c3ccc(C)c(F)c3)c(=O)c3sc4ccccc4c32)cc1	inactive: 7.25%	

SMILES	activity change, negative = cytotoxicity	Potency
Cc1ccc(S(=O)(=O)N(CC(=O)N2CCc3ccccc3C2)c2ccc(C)c(C)c2)cc1	inactive: -16.9%	
Cn1nnnc1SCCNCc1ccc(OCc2ccccc2)cc1	inactive: -2.48%	
COC(=O)c1sccc1S(=O)(=O)N(CC(=O)NCc1ccccc1)c1ccc(C)c(C)c1	inactive: 10.3%	
CCOC(=O)c1c(C)c(-c2ccccc2)n(CC(=O)Nc2cccc(F)c2)c1C	inactive: 7.6%	
CCOc1ccc(NC(=O)CCS(=O)(=O)c2ccc(Br)s2)cc1	inactive: 6.19%	
Cc1cccc(NC(=O)CN2C(=O)COc3ccc(S(=O)(=O)N4CCC(C)CC4)cc32)c1C	inactive: 1.47%	
CCN(CC)CCCNC(=O)c1nn(-c2ccc(OC)c(Cl)c2)c(=O)c2c1c1ccccc1n2C	inactive: 17.8%	
CCOC(=O)C1CCN(C(=O)C2CCN(c3nnc(C)c4c(C)n(-c5ccccc5)nc34)CC2)CC1	inactive: 18.3%	
CCCC(=O)Nc1cc(C(=O)NCc2ccc(OC)cc2)ccc1S(=O)(=O)c1ccc(Cl)cc1	inactive: -9.67%	
Cc1nn(CC(=O)NCc2ccccc2Cl)c(=O)c2cccn12	inactive: 15.6%	
CCOC(=O)c1ccccc1NC(=O)N1CCCN(S(=O)(=O)c2ccc3c(ccn3CC)c2)CC1	inactive: -0.378%	
Cc1cccc(-c2nc(CCNC(=O)c3ccccc3Br)cs2)c1	inactive: -10.2%	
O=C(Nc1cc(F)ccc1F)c1ccc2c(c1)nnn2C1CCCC1	inactive: 2.18%	
CCc1ccc(CNC(=O)C2CCCN(c3nn4cc(-c5ccc(F)cc5)nc4s3)C2)cc1 (stereo not given)	inactive: -4.35%	
COC(=O)c1cc2oc3ccccc3c2n1Cc1c(C)cc(C)cc1C	inactive: -1.79%	
COCCCNC(=O)CSc1nc(-c2ccc(OC)c(OC)c2)[nH]c1-c1ccc(F)cc1	inactive: -2.89%	
Cc1cc(C)c2c(=O)cc(C(=O)NCc3ccc(S(N)(=O)=O)cc3)oc2c1	inactive: 9.46%	
CCc1ccc(NC(=O)CCc2nnc3n(C)c(=O)c4sccc4n23)cc1	inactive: 0.186%	
Cc1ccc(C2=NC(c3ccccc3)=Nc3ccc(Cl)cc3N2)cc1	inactive: 1.59%	
Cc1nc2cccnc2n1-c1cccc(C(=O)NCCc2ccc(S(N)(=O)=O)cc2)c1	inactive: 4.22%	
Cc1nn2c(=O)cc(COC(=O)COc3ccc(F)cc3)nc2s1	inactive: 0.791%	
COc1cc2ccccc2cc1C(=O)Nc1cccc(-c2nc3cc(C)ccc3o2)c1C	inactive: 5.89%	
Cc1cccc(NC(=O)C2CCCN(S(=O)(=O)c3ccc(Br)s3)C2)c1 (stereo not given)	inactive: 5.58%	
Cc1ccc(OCC(=O)Nc2ccc3nc(SCCOc4ccccc4)sc3c2)cc1	inactive: 1.43%	

SMILES	activity change, negative = cytotoxicity	Potency
CCOC(=O)Cn1c(=O)oc2cc(S(=O)(=O)N3CCC(C(=O)OCC)CC3)ccc21	inactive: 4.79%	
COc1ccc(NC(=O)Cn2nnc3sc4c(c3c2=O)CCCC4)cc1	inactive: 4.02%	
Cc1ccc(NC(=O)CSc2nnc(-c3ccc(Br)cc3)o2)c(C)c1	inactive: 21.4%	
Cc1cc(C)c(NC(=O)CSc2nc3ccncc3[nH]2)c(C)c1	inactive: -2.48%	
Cc1ccc(NC(=O)CN2C(=O)COc3ccc(S(=O)(=O)Nc4ccccc4)cc32)c(C)c1	inactive: 2.6%	
COc1ccc(CNC(=O)c2ccc3nc(C(C)C)oc3c2)cc1OC		active: 28.2 µM
CCOC(=O)C1CCCN(c2ncnc3c2nnn3C)C1 (stereo not given)	inactive: -2.56%	
O=C(Nc1cccc(C(F)(F)F)c1)c1ccc2snnc2c1	inactive: -2.32%	
CC(=O)c1ccc(NC(=O)Cn2c(=O)nc(-c3ccccc3)c3cc(Cl)ccc32)cc1	inactive: 7.03%	
CCOc1ccc(-c2nnc(SCC(=O)c3ccc(Br)cc3)n2-c2ccccc2)cc1	inactive: -2.29%	
CCOc1ccc(CCNC(=O)c2cc3c(s2)-c2c(C)cccc2OC3)cc1	inactive: 8.6%	
O=C(CN1C(=O)CCc2cc(S(=O)(=O)N3CCOCC3)ccc21)NCc1ccc(Cl)cc1	inactive: 5.37%	
COCCn1c(SCC(=O)c2c[nH]c3ccccc23)nc2cc(C(=O)NC(C)C)ccc2c1=O	inactive: -20.5%	
COCCCNC(=O)c1ccc(C)c(-n2c(C)nc3cccnc32)c1	inactive: 9.48%	
Cc1nc2ccn(Cc3cccnc3)c(=O)c2cc1C(=O)Nc1ccc(F)cc1F	inactive: -0.723%	
O=S(=O)(Nc1ccc(F)cc1F)c1ccc(-n2cccn2)cc1	inactive: 0.0149%	
CCN(CC)c1ccc2cc(-c3nc(-c4ccccc4F)no3)c(=O)oc2c1	inactive: 13.4%	
COc1cc(NC(=O)NCCN2CCN(c3ccccc3)CC2)cc(OC)c1OC	inactive: 4.51%	
COc1ccc(C(=O)NCCn2cc(SC(C)c3ccccc3)c3ccccc32)cc1OC (stereo not given)	inactive: -12.6%	
Cc1ccc(N(C)C(=O)CCS(=O)(=O)c2cc3c(cc2Cl)NC(=O)CO3)cc1	inactive: -3.38%	
O=C(NCc1cccs1)c1ccc(CSc2nc3ccncc3n2Cc2ccccc2)cc1	inactive: -8.54%	
CC1CCC(NC(=O)c2ccc(CS(=O)(=O)c3cccc(C(F)(F)F)c3)o2)CC1 (stereo not given)	inactive: 0.662%	
CCOc1ccc(S(=O)(=O)NCCc2csc3nc(-c4ccc(F)cc4)nn23)cc1	inactive: -18.9%	

Reference: PubChem BioAssay AID1508642 (National Center for Advancing Translational Sciences (NCATS), 2021)
